Data: PubChem BioAssay AID504332 (National Center for Advancing Translational Sciences (NCATS), 2011)
“And” between values parts separate entries of the source, which are not always exact repeats. Equal entries are not always repeated. Out of some 350,000 compounds screened, about 31,000 (8.9%) were called active. This list was built around the results that the source calls inconclusive (neither active nor inactive); the mix of calls is not that of the screen. Calls follow the shape of the dose curve; as a rule, active = well fitted inhibition curve with a large enough effect; inconclusive = small, poorly fitted or top-dose-only effect; inactive = no such curve, though single readings can be large or run the other way. A potency beside an inconclusive call is a rough fit, not a confirmed value.

Biological target: Histone-lysine N-methyltransferase EHMT2 (Homo sapiens) (UniProt Q96KQ7)
UniProt Q96KQ7, sequence (Q96KQ7 whole entry, looked up): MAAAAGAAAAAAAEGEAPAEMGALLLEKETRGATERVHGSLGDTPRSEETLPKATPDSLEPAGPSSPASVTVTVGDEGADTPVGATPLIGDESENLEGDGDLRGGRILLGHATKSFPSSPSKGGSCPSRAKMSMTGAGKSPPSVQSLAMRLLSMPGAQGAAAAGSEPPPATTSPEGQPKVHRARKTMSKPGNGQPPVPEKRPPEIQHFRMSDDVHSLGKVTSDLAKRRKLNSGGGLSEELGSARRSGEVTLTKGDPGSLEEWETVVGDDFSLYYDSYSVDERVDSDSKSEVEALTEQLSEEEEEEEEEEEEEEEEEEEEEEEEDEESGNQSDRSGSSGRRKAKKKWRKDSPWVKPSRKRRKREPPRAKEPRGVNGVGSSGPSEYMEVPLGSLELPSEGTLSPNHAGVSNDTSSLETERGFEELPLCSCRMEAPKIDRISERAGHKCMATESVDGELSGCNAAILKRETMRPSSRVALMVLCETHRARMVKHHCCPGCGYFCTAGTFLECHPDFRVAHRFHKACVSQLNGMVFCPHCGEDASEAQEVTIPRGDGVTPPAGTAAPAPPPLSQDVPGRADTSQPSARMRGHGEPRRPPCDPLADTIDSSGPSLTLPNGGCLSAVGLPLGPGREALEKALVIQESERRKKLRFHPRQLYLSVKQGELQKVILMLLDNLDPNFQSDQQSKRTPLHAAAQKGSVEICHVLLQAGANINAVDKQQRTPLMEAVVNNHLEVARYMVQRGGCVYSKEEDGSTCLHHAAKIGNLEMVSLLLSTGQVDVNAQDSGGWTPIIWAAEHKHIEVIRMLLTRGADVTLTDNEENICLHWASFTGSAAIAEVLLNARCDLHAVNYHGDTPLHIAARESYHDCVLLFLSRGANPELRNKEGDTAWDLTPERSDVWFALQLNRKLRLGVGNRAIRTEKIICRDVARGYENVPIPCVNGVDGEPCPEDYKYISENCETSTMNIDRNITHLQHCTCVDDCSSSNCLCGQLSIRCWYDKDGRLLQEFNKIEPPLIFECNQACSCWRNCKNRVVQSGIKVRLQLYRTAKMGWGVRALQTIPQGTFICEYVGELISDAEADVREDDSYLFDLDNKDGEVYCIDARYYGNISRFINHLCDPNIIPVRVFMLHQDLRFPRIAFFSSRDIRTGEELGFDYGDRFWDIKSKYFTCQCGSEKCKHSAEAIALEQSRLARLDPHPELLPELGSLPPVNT
Assay: qHTS Assay for Inhibitors of Histone Lysine Methyltransferase G9a; also: nearly all actives have a fitted effect of over 75% in size
Conditions: G9a H3K9 monomethylation, AlphaScreen, 2 h; activity, negative = inhibition: at 59 µM (top of the series) unless noted
How it was run: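 Step 1: enzyme (final 20 nM) with compound, 15 min RT. Step 2: substrate peptide 500 nM and SAM 20 uM, 2 h RT. Step 3: anti-H3K9me1 antibody and AlphaScreen beads, 10 min, then plate read.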
% is scaled to controls: 0 for no effect and ±100 for the full control effect; potency is read from the fitted curve at half-maximal effect; tags tell the direction and shape of the fitted curve.

Row | SMILES | Potency | activity, negative = inhibition
1 | FC(F)(F)c1nnc2ccc(-n3ccnc3)nn12 | inconclusive: 100 µM [inhibitor, single point] | 
2 | COc1ccc(S(=O)(=O)N2CCc3cc(OC)c(OC)cc3C2)cc1 | inconclusive: 56.2 µM [inhibitor, partial curve] | 
3 | Cc1ccc(CNC(=O)C2CCCN(S(=O)(=O)c3cn(C)cn3)C2)cc1 (stereo not drawn) | inactive | 
4 | Cc1noc(C)c1C(=O)Nc1nnc(-c2ccccc2)s1 | inconclusive: 89.1 µM [inhibitor, partial curve, poor fit] | 
5 | COc1ccc2oc(=N)c(C(=O)Nc3ccc(Cl)cc3)cc2c1 |  | inactive: 5.99% [at 0.501 µM]
6 | CC(C)c1cnc2c(c1SCC(=O)N1CCCCC1)c(=O)n(C)c(=O)n2C | inconclusive: 39.8 µM [inhibitor, single point] | 
7 | CCOC(=O)N1CCN(C(=O)c2c(-c3ccccc3)noc2C)CC1 | inconclusive: 22.4 µM [inhibitor, partial curve, poor fit] | 
8 | CCOC(=O)c1ccc(NC(=O)c2ccccc2[N+](=O)[O-])cc1 | inactive | 
9 | CC(C)Cc1nn2c(=O)cc(COC(=O)c3ccc(NC(=O)CCc4ccccc4)cc3)nc2s1 | inconclusive: 28.2 µM [inhibitor, partial curve, poor fit] | 
10 | CSc1ccc(/C=N/NC(=O)c2ccc(-n3cnnn3)cc2)cc1 | inconclusive: 3.16 µM [inhibitor, partial curve, poor fit] | 
11 | O=S(=O)(/C=C/c1ccccc1)N1CCN(Cc2ccc3c(c2)OCO3)CC1 | inconclusive: 44.7 µM [inhibitor, partial curve, poor fit] | 
12 | CCOC(=O)N1CCc2c(sc3c2c(=O)n(Cc2ccccc2)c(=O)n3CC(=O)Nc2ccc(C)cc2C)C1 | inactive | 
13 | CN(C)/N=C1\CCS(=O)(=O)c2sccc21 | inconclusive: 25.1 µM [inhibitor, partial curve, poor fit] | 
14 | CC(=O)Nc1ccc(NC(=O)c2ccc3c(c2)NC(=O)c2ccccc2S3)cc1 | inactive | 
15 | CCc1ccc2c(c1)NC(c1ccc(C)cc1)=NC(c1cccs1)=N2 | active: 12.6 µM | 
16 | CC(=O)c1ccc(S(=O)(=O)N2CCN(CC#N)CC2)cc1 | inconclusive: 70.8 µM [inhibitor, single point] | 
17 | CC(C)CC(=O)N1CCN(Cc2ccc3c(c2)OCO3)CC1 | inconclusive: 11.2 µM [inhibitor, full curve, poor fit] | 
18 | COCCCn1c(Cc2csc(Nc3cccc(Cl)c3)n2)nnc1SCC(=O)OC | active: 28.2 µM | 
19 | COc1ccc(-c2n[nH]c(=S)nc2-c2ccc(OC)cc2)cc1 | inconclusive: 89.1 µM [inhibitor, single point] | 
20 | O=S(=O)(c1ccc2nc(-c3ccco3)c(-c3ccco3)nc2c1)N1CCOCC1 | active: 2 µM | 
21 | Cc1ccc(OCC(=O)c2cc(C)c(C)cc2C)c([N+](=O)[O-])n1 | inconclusive: 79.4 µM [inhibitor, single point] | 
22 | CCn1c(-c2nn(-c3ccc(C)cc3)ccc2=O)n[nH]c1=S | inconclusive: 7.08 µM [inhibitor, full curve, poor fit] | 
23 | Cc1[nH]n(-c2ccccc2)c(=O)c1C=Nc1ccc2[nH]c(=O)[nH]c2c1 | inconclusive: 1.41 µM [inhibitor, partial curve, poor fit] | 

Row | SMILES | Potency | activity, negative = inhibition
24 | O=S(=O)(c1cccc(-c2n[nH]c(=S)o2)c1)N1CCOCC1 | active: 14.1 µM | 
25 | COc1cc([N+](=O)[O-])ccc1NC(=O)CSc1ccccn1 | inactive | 
26 | CC1CC(NS(=O)(=O)c2cccs2)CC(C)(C)C1 (stereo not drawn) |  | inactive: -0.731% [at 12.7 µM]
27 | Cc1cccc(CS(=O)(=O)Cc2ccc(C(=O)NCc3cccnc3)o2)c1 |  | inactive: -1.88% [at 12.7 µM]
28 | Cc1nnc(SC(C)C(=O)Nc2ccc3ccccc3c2)n1C (stereo not drawn) | inconclusive: 1 µM [inhibitor, single point] | 
29 | Cc1cccc(NC(=O)CCCN2C(=S)NC(C)(C)CC2C)c1C (stereo not drawn) | inconclusive: 79.4 µM [inhibitor, partial curve, poor fit] | 
30 | CN(C)c1ccc(C2C=C(c3ccccc3)Nc3nnnn32)cc1 (stereo not drawn) | inconclusive: 2.51 µM [inhibitor, partial curve, poor fit] | 
31 | Cc1noc(/C=C/c2cccs2)c1S(=O)(=O)N1CCC(C(=O)NCCCN2CCCC(C)C2)CC1 (stereo not drawn) | inconclusive: 39.8 µM [inhibitor, partial curve, poor fit] | 
32 | Nc1c2c(nc3ccccc13)N(c1ccccc1)CC2 | inconclusive: 3.16 µM [inhibitor, single point] | 
33 | O=C(CN(CCc1ccccc1)C(=O)CNS(=O)(=O)c1ccccc1)NCc1ccco1 | inactive | 
34 | O=C(CCc1nc2cccnc2n1-c1ccccc1)Nc1ccc(Cl)c(Cl)c1 | inconclusive: 8.91 µM [inhibitor, partial curve, poor fit] | 
35 | S=c1[nH]nc(-c2ccccc2Cl)n1CC1CCCO1 (stereo not drawn) | active: 5.01 µM | 
36 | O=C(COC(=O)CNC(=O)c1ccccc1)Nc1nc(-c2ccccc2)cs1 | inconclusive: 20 µM [inhibitor, single point] | 
37 | Cc1ccc(OCC(O)CN2CCN(CCO)CC2)c(C)c1 (stereo not drawn) | inconclusive: 89.1 µM [inhibitor, single point] | 
38 | O=C(NCC1CCCN(C(=O)NCc2ccccc2)C1)c1ccc2c(c1)OCO2 (stereo not drawn) | inactive | 
39 | CCN(CC)C(=O)CSc1nc2ccccc2n1CC(=O)N1CCN(c2ccccc2OC)CC1 | inconclusive: 89.1 µM [inhibitor, single point] | 
40 | CC(C)(c1ccccc1)c1ccc(OCC2CO2)cc1 (stereo not drawn) | inactive | 
41 | CC1CCC(C(C)C)C(OC(=O)Cn2c(-c3ccc(Br)cc3)[n+](C)c3ccccc32)C1 (stereo not drawn) | inconclusive: 39.8 µM [inhibitor, partial curve] and inconclusive: 89.1 µM [inhibitor, single point] | 
42 | CCCC(=O)Nc1ccc(C(=O)n2ccc(C)n2)cc1 |  | inactive: -13.6% [at 0.501 µM]
43 | CCOc1cc(N2CCOCC2)c(OCC)cc1NC(=O)CN1CCC(Cc2ccccc2)CC1 | active: 50.1 µM | 
44 | O=C(COC(=O)c1ccc(Cl)s1)c1ccc[nH]1 | inconclusive: 50.1 µM [inhibitor, partial curve] | 
45 | CNC(=S)Nc1ccc(Nc2ccccc2)cc1 | inconclusive: 79.4 µM [inhibitor, single point] | 
46 | COC(=O)c1ccc(NC(=S)NNC(=O)CC(C)C)cc1 | active: 10 µM | 

Row | SMILES | Potency | activity, negative = inhibition
47 | O=C(O)c1cn(-c2ccc(F)cc2)c(=O)c2ccccc12 | inconclusive: 3.55 µM [inhibitor, partial curve, poor fit] | 
48 | Cc1ccc(-n2ncc(C(=O)Nc3ccc4c(c3)OCO4)c2C2CCN(C(=O)OC(C)(C)C)CC2)c(C)c1 | inconclusive: 31.6 µM [inhibitor, single point] | 
49 | Cc1cc(C)c(NC(=O)CN2C(=O)NC3(CCCc4ccccc43)C2=O)c(Cl)c1 (stereo not drawn) | inconclusive: 79.4 µM [inhibitor, single point] | 
50 | COc1ccc(S(=O)(=O)N[C@@H](CSCc2ccccc2)C(=O)O)cc1 | active: 50.1 µM | 
51 | Cc1nn(C)c2c1c(C(F)(F)F)cc(=O)n2CC(=O)N1CCCCC1C (stereo not drawn) | inactive | 
52 | CCCCN1CCNC[C@@H]1Cc1ccccc1 |  | inconclusive: -98.4% [inhibitor] [at 2.33 µM]
53 | COc1ccccc1N/N=C1\COC(C)(C)CC1=O | inconclusive: 79.4 µM [inhibitor, single point] | 
54 | Nc1nc(Sc2ccc(C(F)(F)F)cn2)n[nH]1 | inconclusive: 89.1 µM [inhibitor, single point] | 
55 | C/C(=C\C(=O)c1ncc(C(F)(F)F)cc1Cl)N(C)C | inconclusive: 11.2 µM [inhibitor, partial curve, poor fit] | 
56 | Cc1ccc(CNC(=O)CCS(=O)(=O)c2ccc(Br)s2)o1 |  | inconclusive: -96.8% [inhibitor]
57 | CCOC(=O)c1c(NC(=O)c2c(Br)cnn2CC)sc(C)c1C | inconclusive: 39.8 µM [inhibitor, single point] | 
58 | COc1ccc(C)cc1NC(=O)CSc1nnc(COc2ccccc2)n1Cc1ccco1 |  | inactive: 4.1% [at 2.33 µM]
59 | O=C(O)C1CCCCN1S(=O)(=O)c1cccc2nsnc12 (stereo not drawn) | inconclusive: 7.94 µM [inhibitor, partial curve, poor fit] | 
60 | S=c1[nH]cc(-c2ccc(Cl)cc2)n1-c1ccccc1 | inconclusive: 1.58 µM [inhibitor, full curve, poor fit] | 
61 | CCN(C(=O)C1CCCN1S(=O)(=O)c1ccc2c(c1)n(C)c(=O)c(=O)n2C)c1ccccc1 (stereo not drawn) | inconclusive: 89.1 µM [inhibitor, single point] | 
62 | O=C1Nc2cc3c(cc2C1=O)sc1ccccc13 | active: 39.8 µM | 
63 | CCn1nc(NS(=O)(=O)c2ccc([N+](=O)[O-])cc2)c2cc3ccc(C)cc3nc21 | inconclusive: 89.1 µM [inhibitor, single point] | 
64 | COc1ccccc1-c1nc(SCc2ccccn2)n[nH]1 | active: 50.1 µM | 
65 | NC(=O)COC(=O)C12CC3CC(CC(O)(C3)C1)C2 | inactive | 
66 | O=C(COC(=O)c1ccc(S(=O)(=O)N2CCCCC2)cc1)NCc1ccco1 | inconclusive: 39.8 µM [inhibitor, partial curve, poor fit] | 
67 | CCNC(=S)NNC(=O)c1cc(-c2cccc(C)c2)nc2ccccc12 | inconclusive: 20 µM [inhibitor, single point] | 
68 | CCOC(=O)CSc1nc2ccc(NC(C)=O)cc2s1 | inactive | 
